Test results from publication PMC6919601, “Identification of Plasmodium dipeptidyl aminopeptidase allosteric inhibitors by high throughput screening” (PLoS ONE, 2019).
The campaign covered roughly 110,000 compounds. About 230 (0.21%) showed an effect of 50% or more. The list shows a part of the results.

target: DPAP1 (Plasmodium falciparum, UniProt Q8IIJ9); test: primary screen, percent inhibition; read by cleavage of a fluorogenic dipeptide substrate; higher = more effect of the substance; design: species or system P. falciparum D10 trophozoite lysates; single well
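Further: 30 min substrate incubation versus DMSO and 10 µM JCP410 controls.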

DPAP1, sequence (Q8IIJ9 whole entry, looked up): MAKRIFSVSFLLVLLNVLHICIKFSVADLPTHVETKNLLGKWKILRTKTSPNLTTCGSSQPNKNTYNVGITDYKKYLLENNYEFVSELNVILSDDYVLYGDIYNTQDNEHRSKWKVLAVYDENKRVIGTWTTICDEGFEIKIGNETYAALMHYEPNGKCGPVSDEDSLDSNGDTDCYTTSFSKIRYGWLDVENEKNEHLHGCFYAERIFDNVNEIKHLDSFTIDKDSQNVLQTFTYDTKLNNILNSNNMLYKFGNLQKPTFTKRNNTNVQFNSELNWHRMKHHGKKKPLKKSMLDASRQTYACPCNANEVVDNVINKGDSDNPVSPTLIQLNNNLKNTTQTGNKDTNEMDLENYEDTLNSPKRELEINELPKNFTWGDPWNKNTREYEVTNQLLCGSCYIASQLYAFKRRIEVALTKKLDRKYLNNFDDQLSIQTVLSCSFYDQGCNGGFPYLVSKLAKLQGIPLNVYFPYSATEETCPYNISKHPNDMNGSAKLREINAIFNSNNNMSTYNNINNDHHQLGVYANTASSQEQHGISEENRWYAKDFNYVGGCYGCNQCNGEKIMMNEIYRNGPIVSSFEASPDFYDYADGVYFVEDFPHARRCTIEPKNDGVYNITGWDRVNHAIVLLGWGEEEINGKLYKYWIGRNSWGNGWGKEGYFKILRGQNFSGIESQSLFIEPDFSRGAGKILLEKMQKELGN

Compound	% Inhibition @ 10 uM [%]
Cc1cccc(C)c1N(CC(=O)N1CCCCCC1)S(C)(=O)=O	-4.59
Cc1ccccc1-n1nc2c(c1NC(=O)C(C)(C)C)CS(=O)(=O)C2	-3.83
CC(=O)c1cc2c(cc1NC(=O)c1ccc(Oc3ccccc3)cc1)OCO2	-6.66
COc1ccccc1N1CCN(C/C(Cl)=C/c2ccccc2)CC1	0.472
Cc1oc(-c2ccccc2F)nc1CS(=O)(=O)CC(=O)NCc1ccco1	-3.7
CCCCN(C)Cc1c(C)nc2ccc(OCC)cc2c1O	5.37
Cc1ccc(C(=O)Nc2c(C(=O)N3CCCCC3)cnn2-c2ccccc2)cc1	2.17
Cn1c(=O)[nH]c(=O)c2[nH]c(N3CCCCC3)nc21	0.635
CCCc1ccc(OCC(=O)Nc2cccc(Cl)c2C)cc1	-9.84
Cc1sc(NC(=O)COc2ccccc2)c(C(N)=O)c1-c1ccc(C(C)(C)C)cc1	11
N#CC1=C(N)Oc2c(c(=O)oc3ccccc23)C12C(=O)Nc1ccccc12 (stereo not shown)	-5.62
CC(=O)OCC12COCC(C(C)=CC1C)C2C (stereo not shown)	-1.86
Sc1nnc(Cc2ccccc2)n1-c1ccccc1	10.4
COCCCNC(=O)C(=O)NCc1ccncc1	-1.6
CCOC(=O)c1c(NC(=O)C2CCCN2S(=O)(=O)c2cccc3nsnc23)sc(C)c1C (stereo not shown)	-4.24
O=C(/C=C1\NCCN\C1=C/C(=O)c1ccc(Cl)cc1)c1ccc(Cl)cc1	4.75
OC(COc1ccc2ccccc2c1Br)Cn1cnc2ccccc21 (stereo not shown)	0.685
CCOc1ccc(S(=O)(=O)N2CCC(C)CC2)c2ccccc12	-3.6
Cc1ccc(S(=O)(=O)N(CC(=O)NCc2ccco2)c2ccc(C)cc2C)cc1	2.37
COc1ccc(Br)cc1C1CC(=O)Nc2c1c(=O)nc(SC)n2C (stereo not shown)	-3.1
COc1ccc2c(CNCCCc3ccccc3)c(C(=O)O)n(C)c2c1	2.33
Cc1oc(-c2cccs2)nc1CS(=O)CC(=O)NCc1ccc(F)cc1 (stereo not shown)	-5.58
CCOc1cc(C2c3c(-c4ccccc4O)n[nH]c3C(=O)N2CCOC)ccc1O (stereo not shown)	-4.95
CN(C)CCCNCc1cccn1C	1.72
CCNc1c(NS(=O)(=O)c2ccc3c(C)c(C(=O)OCC)oc3c2)c(=O)oc2ccccc12	-2.23
CCCCOc1ccc(C(=O)Nc2c3c(nn2-c2ccccc2C)CS(=O)(=O)C3)cc1	-0.657
CC(C)(C)c1ccc(C2=N/C(=C\c3ccc(F)cc3)C(=O)O2)cc1	0.434
C=CCOc1ccc(C2C3=C(CCCC3=O)N(CCC(=O)O)C3=C2C(=O)CCC3)cc1OC	-0.984
